Measured values published in patent US20220363775A1 (Memorial Sloan Kettering, published 2022).

Target: T1, human C-type lectin domain family 12 member A (CLEC12A) (human, UniProt Q5QGZ9 1-265)
T1 construct: also called CD371; CLL-1
T1 sequence: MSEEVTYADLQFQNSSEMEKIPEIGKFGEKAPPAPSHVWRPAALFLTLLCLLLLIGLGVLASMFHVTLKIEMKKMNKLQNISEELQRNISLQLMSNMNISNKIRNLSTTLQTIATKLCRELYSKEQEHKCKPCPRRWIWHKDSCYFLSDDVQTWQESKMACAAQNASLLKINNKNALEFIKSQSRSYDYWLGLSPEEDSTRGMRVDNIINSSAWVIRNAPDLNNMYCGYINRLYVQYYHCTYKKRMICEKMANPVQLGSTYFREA
Assay: flow cytometry, dose titration of purified scFv-Fc on live cells expressing the target

EC50: 0.081 µg/mL
B1: CLEC12A scFv-Fc (purified recombinant CLEC12A-A scFv fused to Fc) (Fc fusion)
chain: QLQLQESGPGLVKPSETLSLTCTVSGGSISSSTYYWGWIRQPPRKGLEWIGSTHYRGSTYYNPSLKSRVTISVDTSKNQFSLKVSSVTAADTAVYYCARELTGEVFDYWGQGTLVTVSSASTGGGGSGGGGSGGGGS[in this place about 100 residues]
notes: also called CLEC12A scFv (CLEC12A-A); not shown: Fc part (and any linker) of the scFv-Fc is not described
